# According to PubChem BioAssay AID686971 (National Center for Advancing Translational Sciences (NCATS), 2013):
# Among all 360,000 compounds or so, about 7,500 (2.1%) were called active. Inconclusive means that the source gave no clear call. Such entries were picked first, then a sample of the others. Calls follow the shape of the dose curve; as a rule, active = well fitted cell-killing curve with a large enough effect; inconclusive = small, poorly fitted or top-dose-only effect, or effect the other way, or another doubt; inactive = no such curve, though single readings can be large or run the other way. No potency is given beside an inconclusive call; the fits are too rough.
# Experiment: qHTS for induction of synthetic lethality in tumor cells producing 2HG: qHTS for the HT-1080-IDH1KD cell line;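 as to activity, negative = toxicity: 0% = DMSO wells and -100% = cell-free medium wells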
# Conditions: HT-1080 IDH1 knockdown viability, ATP luminescence, 48 h; activity, negative = toxicity: at 46.1 µM (top of the series) unless noted
# In short: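 Luminescent ATP read-out (CellTiter-Glo, 10 min at room temperature) after 48 h compound exposure at 37 °C gave viability of IDH1-knockdown HT-1080 cells. Activity was normalised to DMSO and cell-free wells, then fitted as concentration-response curves.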
# Potency is read from the fitted curve at half-maximal effect; tags tell the direction and shape of the fitted curve.
SMILES,Potency,"activity, negative = toxicity"
CN(c1ccccc1)S(=O)(=O)c1cccc(NC(=O)c2ccc(Cl)c([N+](=O)[O-])c2)c1,"inconclusive [cytotoxic, single point]",–
CCOC(=O)[C@]12CCCC=C1N(Cc1ccc(Cl)cc1Cl)C(=O)[C@H](CC(=O)NCCCCc1ccccc1)C2,"inconclusive [cytotoxic, partial curve]",–
Cc1ccc(C)c(-c2ccc(=O)n(Cc3cccc(Br)c3)n2)c1,"inconclusive [cytotoxic, single point]",–
O=C(CN(C1CCCCC1)S(=O)(=O)c1ccccc1)NCc1cccnc1,inactive,–
C=CCNCCCCOc1ccccc1-c1ccccc1,"inconclusive [cytotoxic, partial curve]",–
CCOC(=O)C1CCCN(c2nc(C)nc3c2oc2ccccc23)C1 (configuration not stated),"inconclusive [cytotoxic, single point]",–
CCN(c1ccccc1)S(=O)(=O)c1ccc(C(=O)Nc2nnc(-c3ccco3)o2)cc1,"inconclusive [cytotoxic, partial curve]",–
Cc1ccc(S(=O)(=O)c2c(N)n(NC(=O)c3ccccc3C)c3nc4ccccc4nc23)cc1,"inconclusive [cytotoxic, single point]",–
CN1/C(=C\C=N\NC(=O)c2cccnc2)C(C)(C)c2ccccc21,inactive,–
CCc1ccc(OCC(=O)N2c3ccccc3CCc3ccccc32)cc1,inactive,–
Cc1cc(C)nc(SCC(=O)N/N=C\C(Br)=C\c2ccccc2)n1,"inconclusive [cytotoxic, single point]",–
Fc1ccc(NC(=S)Nc2cc(-c3ccccc3)[nH]n2)cc1Cl,"inconclusive [cytotoxic, single point]",–
CC1CCN(C(=O)c2ccc3c(c2)NC(=O)/C(=C/c2ccccc2)S3)CC1,"inconclusive [cytotoxic, single point]",–
Cc1ccc2c(C)c(C(=O)N3CCN(c4ccncc4)CC3)oc2c1C,"inconclusive [cytotoxic, single point]",–
COCCCNc1nnc(Cc2ccc(Cl)cc2)c(=O)[nH]1,"inconclusive [cytotoxic, full curve]",–
CN(c1ccccc1)S(=O)(=O)c1cccc(NC(=O)c2ccc3ncsc3c2)c1,"inconclusive [cytotoxic, partial curve]",–
N#Cc1ccccc1OCC(=O)N1CCN(C(=O)c2ccco2)CC1,inactive,–
N#Cc1cc(C#N)c(SCC(=O)N2CC(=O)Nc3ccccc32)nc1N,"inconclusive [cytotoxic, single point]",–
Cc1ccc(OCC(=O)OCC(=O)NC2CCCCCC2)cc1C,inactive,–
COc1cc2c(c(OC)c1OC)-c1ccc(OC)c(=O)cc1[C@@H](N(C)CC#CCO)CC2,active: 0.164 µM,–
COc1cc2c(cc1OC)CN(C(=O)c1ccc([N+](=O)[O-])o1)CC2,"inconclusive [cytotoxic, single point]",–
Cc1ccccc1CN1CCN(Cc2cc(=O)c3ccccc3[nH]2)CC1CCO (configuration not stated),inactive,–
CN1C/C(=C/c2ccsc2)C(=O)/C(=C/c2ccsc2)C1,"inconclusive [cytotoxic, full curve]",–
O=C(OCc1ccccc1)N1CCC2CC1c1ccc(N3CCN(Cc4ccc5c(c4)OCO5)CC3)cc12 (configuration not stated),"inconclusive [cytotoxic, single point]",–

SMILES,Potency,"activity, negative = toxicity"
CCc1ccc(CCN2C(=O)c3ccccc3C2=O)nc1,–,inconclusive: 35.4%
O=C(Nc1ccc(N2CCCC2)cc1)c1cc(Cl)ccc1Cl,"inconclusive [cytotoxic, single point]",–
CCOC(=O)c1ccccc1NC(=O)COC(=O)c1ccc(C)c(S(=O)(=O)N2CCOCC2)c1,inactive,–
COc1ccc(NS(=O)(=O)c2cccs2)cc1S(=O)(=O)N1CCCCC1,inactive,–
O=C(COc1ccccc1-c1ccccc1)N/N=C/c1cccnc1,"inconclusive [cytotoxic, single point]",–
COc1ccc(CCN(C)CC(O)COC(c2ccc(F)cc2)c2ccc(F)cc2)cc1OC (configuration not stated),"inconclusive [cytotoxic, single point]",–
C#CCn1cc(/C=N/Nc2nc3ccccc3[nH]2)c2ccccc21,"inconclusive [cytotoxic, single point]",–
Cc1ccc(Nc2c([N+](=O)[O-])c(=O)oc3ccccc23)cc1,"inconclusive [cytotoxic, partial curve]",–
C=C(C)CN(CC)C(=O)CSc1ccc(S(=O)(=O)N2CCN(C)CC2)cn1,inactive,–
Cc1ccc(S(=O)(=O)N2CCC(N3CCC(C)CC3)CC2)cc1,–,inconclusive: 33.9%
O=C(Nc1cccc(Cl)c1N1CCCC1)c1cc2ccccc2o1,"inconclusive [cytotoxic, single point]",–
Cc1ccccc1OCCOC(=O)c1c(-c2ccccc2)noc1C,active: 5.8 µM,–
O=[N+]([O-])c1cc(/C=N/O)ccc1SCc1ccccc1Cl,"inconclusive [cytotoxic, single point]",–
CCOc1ccc2c(c1)C(C)=CC(C)(C)N2S(=O)(=O)c1ccc(F)cc1,"inconclusive [cytotoxic, partial curve]",–
COc1cc(-c2cc3nc(NC4CCCCC4)ccn3n2)cc(OC)c1OC,active: 16.4 µM,–
Cc1ccc(C(=O)Nc2nc(-c3ccccn3)cs2)s1,"inconclusive [cytotoxic, full curve]",–
CCOC(=O)c1cc(NC(=O)COc2ccc([N+](=O)[O-])cc2)cc(C(=O)OCC)c1,"inconclusive [cytotoxic, single point]",–
CCc1ccc(-c2nc(CSCC(=O)N3CCN(c4ccccn4)CC3)c(C)o2)cc1,"inconclusive [cytotoxic, single point]",–
O=C(Nc1ccc(NC(=O)c2ccc3c(c2)OCCO3)cc1)c1ccccc1,"inconclusive [cytotoxic, single point]",–
O=C(CSc1cccc[n+]1[O-])CSc1cccc[n+]1[O-],active: 0.517 µM,–
Cc1cccc(Cn2ncc(Cl)c(Cl)c2=O)c1,active: 7.08 µM,–
CSCCC(c1nnnn1C1CCCCC1)N1CCN(C/C=C/c2ccccc2)CC1 (configuration not stated),"inconclusive [cytotoxic, single point]",–
COC(=O)c1ccc(Cl)c(NC(=O)c2cccc([N+](=O)[O-])c2C)c1,inactive,–
CN(Cc1cnc2nc(N)nc(N)c2n1)c1ccc(C(=O)NC(CCC(=O)O)C(=O)O)cc1C(F)(F)F (configuration not stated),active: 0.146 µM,–

SMILES,Potency,"activity, negative = toxicity"
Oc1ccc2ccccc2c1N=Nc1nccs1,"inconclusive [cytotoxic, full curve, poor fit]",–
Cc1ccc(S(=O)(=O)N2CCC(=O)N(C(COCc3cccc(C(F)(F)F)c3)Cc3ccccc3)CC2)cc1 (configuration not stated),inactive,–
COc1ccc(Cn2nnnc2C(c2cc3ccc(OC)cc3[nH]c2=O)N2CCCCCC2)cc1 (configuration not stated),inactive,–
Cc1ccc([N+](=O)[O-])cc1S(=O)(=O)Nc1cccc(S(=O)(=O)NC2=NCCC2)c1,inactive,–
O=S(=O)(c1ccccc1Br)N(Cc1ccccc1)CC(O)COCc1ccccc1 (configuration not stated),"inconclusive [cytotoxic, single point]",–
CCC(C)(C)C1CCC2(CC1)NC(=S)N(c1ccccc1)N2 (configuration not stated),active: 18.4 µM,–
CC1CC(C)(C)NC(=S)N1CCCC(=O)NCCc1ccc(Cl)cc1 (configuration not stated),inactive,–
Cc1cc(Nc2cccc(Cl)c2)nc(-c2ccccc2O)n1,"inconclusive [cytotoxic, partial curve]",–
O=C(NCC(c1cccs1)N1CCOCC1)C1CCN(S(=O)(=O)c2c(Cl)cccc2Cl)CC1 (configuration not stated),inactive,–
Cc1ccccc1-n1c(SC(C)C(=O)NCC2CCCO2)nnc1-c1ccncc1 (configuration not stated),inactive,–
CC1CCN(CCc2nc3cc(NC(=O)COc4ccc(Cl)cc4)ccc3n2C)CC1,"inconclusive [cytotoxic, single point]",–
CCCCCCCCOC(=O)c1nc(Cl)c(Cl)c(N)c1Cl,"inconclusive [cytotoxic, single point]",–
Cc1cc2cc(C)c(NCCNC(=O)c3cccs3)nc2cc1C,"inconclusive [cytotoxic, partial curve]",–
CC(=O)Nc1ccc(C(=O)N/N=C/c2ccccc2OC(=O)c2ccc(Cl)cc2)cc1,active: 23.1 µM,–
O=C(CN1CCN(Cc2ccccc2)CC1)c1ccc(Br)cc1,"inconclusive [cytotoxic, single point]",–
S=C(NN=C(C1CC1)C1CC1)Nc1ccccc1,inactive,–
CCN1CCc2c(sc(NC(=O)c3ccc(C(=O)c4ccccc4)cc3)c2C(N)=O)C1,"inconclusive [cytotoxic, single point]",–
Nc1ccc(-c2nc3ccccc3s2)cn1,–,inconclusive: -22.9% [cytotoxic]
COc1ccc2c(c1)c(CC(=O)Nc1nnc(C3CC3)s1)c(C)n2C(=O)c1ccc(Cl)cc1,"inconclusive [cytotoxic, partial curve, poor fit]",–
CCc1c(C)nc(SCc2cccnc2)[nH]c1=O,inactive,–
Cc1ccc(-c2noc(CC(=O)c3ccc([N+](=O)[O-])cc3)n2)cc1,inactive,–
CC1(C)N=C2C(=[N+]1[O-])CCC/C2=N\O,inactive,–
Nc1c(C(=O)c2cccs2)oc2ccccc12,"inconclusive [cytotoxic, single point]",–
COc1ccc(C2/C=C\CN(C(=O)Oc3ccc(C(F)(F)F)cc3)CC(=O)N2Cc2ccc(F)cc2)cc1 (configuration not stated),inactive,–
